# Experimental data taken from the supplement of paper PMC11417369.
# This is one part of the list.
# System: PfSIP2 AP2 domain 1 (GST-tagged)
# Experiment: gcPBM binding intensity (ln(normalized median fluorescence intensity)); higher = stronger DNA binding
# Summary of the method: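 GST-tagged P. falciparum DNA-binding domains, expressed in E. coli (about 25 μg on average), were applied for 1 h to an Agilent 4 × 180k array of primer-extended double-stranded 36-bp intergenic genomic probes plus negative controls. The binding buffer was 1× PBS with 1% milk, 0.2 mg/ml BSA, 0.5% salmon testes DNA and 0.03% Triton X-100. Bound protein was detected with Alexa488 anti-GST antibody and scanned at 488 nm. Binding intensity is the highest Masliner-normalised natural-log median intensity across replicate spots of either probe orientation.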
row,Sequence,gcPBM binding intensity (ln)
1,ATAATATATATATTTTGTACACATGAAAAGGAGGAT [XGTACX_site5034],7.88
2,ATAAAGTCTATATTATGTACATATAATATAAATATT [XGTACX_site6703],7.09
3,GAACATTACGTAAATAAATAAATAAAAATAAATACA [XGTACX_negctrl_site25],6.92
4,AAAAAACTTCACATATGTACTTAAAAAAAATTAAAA [XGTACX_site2368],7.15
5,TATTGTCTTGTATATGCATGTAGACCAAATATGTAA [TGCATGCA_site9],7.16
6,CAAAAAAAAATCTGTAGTACTTATTAATATTGCTGT [XGTACX_site4767],7.1
7,ATCACAAAAAAGTTCATACACACAACCTATTTATAT [CACACA_site2888],7.01
8,AAATCAAATTTTTAGAGTACTTAAGTTTTCTATATA [XGTACX_site7827],6.91
9,TCCCCATATGTTTTGTGTACATATATATTTTTTTGT [XGTACX_site75],7.19
10,TAATATATTAATATATGTACATATTTATATATCTAC [XGTACX_site7117],7.27
11,AAATAAGAGCGTAGCACACACGCATTTTATAAATGG [CACACA_site4571],6.65
12,TCATATAAGTTTAGTAGTACTAAAAGTTAGAGAGAA [XGTACX_site3430],7.42
13,ATATATGGAAAGAGTAGTACTATTATAGGGGTGTTA [XGTACX_site6785],7.13
14,TGATTATTATAATTTAGTACATAATATTTTATATAA [XGTACX_site6125],7.07
15,CAAGGAACCAGACACACACACATAAATGTATATATA [CACACA_site752],7.01
16,AAAACAAAAGAATTCACACATATATATATATATATA [CACACA_site4777],9.68
17,AAAATTAAACATACATCACACATGCATTATATTATG [CACACA_site5517],7.21
18,AAAATTAACGAGTGCACACATATTTAGATAAAATAC [CACACA_site2936],11.2
19,TTAAACGTACATAATACACACACATGTAGACATATA [CACACA_site8635],7.09
20,ATACTTTATTAATATTGTACAAAATAAGAAAAAAAA [XGTACX_site310],7.1
21,ACATAAAAATTATGCACACTTAATAAAGCGAAATGT [CACACA_site3183],7.72
22,CACAACAGGGTTGAGGTGCGTAAAAATAGTAGAATA [GTGCAC_site9523],9.02

row,Sequence,gcPBM binding intensity (ln)
1,TTTTTAATCCTTTGCGCATGTAAAATTATATATTTT [TGCATGCA_site306],7.43
2,TATATATATATGTGTACACAAAAAATATTATATTAT [CACACA_site5505],9.36
3,ATTCTATTTTTAAGTACACACATATATATATATATA [CACACA_site3658],9.29
4,ACATAATTATTATGCACACATATTTTTATGTATTTA [CACACA_site698],7.72
5,TAATGGTGTTCATGTGGTACACTTTATAAATTGGCA [XGTACX_site729],7.31
6,TTGAAAATTCTTAAGGCACACACATATATAATATAT [CACACA_site8088],7.12
7,GCTTATTTTAATTCTTGTACTTATTTATATACAAAT [XGTACX_site2099],7.61
8,AAACTAACTCTAACATGTACATATATATATATATAT [XGTACX_site6949],9.35
9,TTTTGAAGTAATACATGTACTTAAATTACTAAAAAA [XGTACX_site1955],6.92
10,ACTTTGCGTTAAAAGAGTACATAATATTTTTTTTTT [XGTACX_site7533],7.33
11,AAAAAAAACAGACACACACACATAAATATAAATAAA [CACACA_site6214],6.97
12,TTTTTAAAAAGTAACACACACTCTTATATATAATGA [CACACA_site3618],6.96
13,TATACATATATATATATATATAGATATATTCACGTG [XGTACX_negctrl_site265],7.88
14,AAAATAATAATAAATGCATGTGTTGTTTACTAAGAA [TGCATGCA_site528],7.54
15,TTTTTATATTTATATAAATAAAAAAATAACAAAATG [XGTACX_negctrl_site231],7.23
16,TACCTATACAGACACACACACACACGCCCACAAAAA [CACACA_site6375],7.35
17,TGAACATACATCAAAAGTACAAACTCGCATGTTATA [XGTACX_site3320],6.78
18,CTCCATATTAGACACACACACAAATGAAAAAAATAT [CACACA_site7420],7.51
19,TAAAATTAAACAAAAAAAAAGAAAAAAAAAAAAAAG [CACACA_negctrl_site1098],6.88
20,TTTTGGTATACGTAATTATATAATATGTTAATCAAT [CACACA_negctrl_site645],7.05
21,AATGTAGACACATATGTACACACATATATATGTATA [CACACA_site9014],7.2
22,AATATTCTATATGATACATGCATGATGGAATAAAAA [TGCATGCA_site980],6.98
